Assay results published in PubChem BioAssay AID1508624 (National Center for Advancing Translational Sciences (NCATS), 2021).
Hit rate of the full screen: of about 48,000 compounds, about 120 (0.25%) were called active. About 4% were inconclusive and are not listed. Calls come from the whole dose curve; as a rule, active = well fitted activation curve with a large enough effect; inconclusive = small, poorly fitted or top-dose-only effect, or another doubt; inactive = no such curve, though single readings can be large or run the other way. This is one part of the list.

Assay: Primary qHTS for Identification of Small Molecule Activators of Huntingtin-Antisense Promoter Activity; note: nearly all actives have a fitted effect of over 55% in size
Conditions: HEK293 HTT-AS promoter firefly luciferase reporter, 24 h; series mostly up to 57.5 µM; activity change, positive = activation: at the top concentration
Method in brief: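 HEK293 cells carrying firefly luciferase reporters were seeded at 2,500 per well in Opti-MEM and cultured for 24 h. They were then treated with compounds at up to 57.5 uM final for 24 h at 37 degrees C before Dual-Glo luminescence readout.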

Activity change, positive = activation, inactive:
COc1ccccc1OCC(=O)NCC(c1ccc(Cl)cc1)N1CCCCC1 (centres undefined) -13.8%
CCN(C(=O)C1CCN(S(=O)(=O)c2ccc3c(c2)CCCN3C(C)=O)CC1)c1cccc(C)c1 -21.3%
COc1cccc(CNC(=O)C(=O)Nc2c3c(nn2-c2ccccc2)CSC3)c1 -22.6%
Cc1c(Cl)cccc1NC(=O)Cn1c(CCC(=O)O)ccc1-c1cccs1 -66.9%
CCOC(=O)c1c(NC(C)=O)c2c3c(sc2n1Cc1nc(-c2cccc(Cl)c2)oc1C)CCCC3 -3.8%
COc1ccc(OC)c(-c2nnc3n(Cc4ccc(C)cc4)c(=O)c4ccccc4n23)c1 -15.2%
Cc1c(-c2ccc(Br)cc2)c(=O)oc2ccc(OC(=O)N3CCOCC3)cc12 -16%
CCN(CC)C(=O)CSc1nc(-c2ccccc2F)nc2c1Cc1c(CO)cnc(C)c1O2 -24.2%
CC(C)(C)OC(=O)N1CCC(c2c(C(=O)N3CCCCC3)cnn2-c2ccc(Cl)cc2)CC1 -11.7%
COC(=O)c1ccccc1NC(=O)CSc1nc2ccsc2c(=O)n1CCC(C)C -1.63%
CCOc1cc(C(=O)NCCc2csc3nc(-c4ccc(C)cc4)nn23)cc(OCC)c1OCC -15.7%
COc1ccc(N2CC(NC(=O)COc3ccccc3)CC2=O)cc1OC (centres undefined) -4.05%
CCOC(=O)c1cnc2ccc(OC)cc2c1NCCc1ccccc1 -76.6%
Cn1c(=O)c2c(SCC(=O)NCc3ccco3)nc(-c3ccccc3)nc2n(C)c1=O -1.86%
CN(c1ncnc2onc(-c3cccc(Cl)c3)c12)C1CCCCC1 -27.7%
O=C(O)Cc1ccc(-c2ccccc2)cc1 2.02%
CCc1ccc(-n2nc3cc(C)c(NC(=O)c4cccc5ccccc45)cc3n2)cc1 12.7%
Cc1ccc(-n2nc(CO)c(C(=O)NCc3ccccn3)n2)cc1C 10.9%
CC1CCn2c(nc3cc(C(=O)NCCc4ccc(Cl)cc4)ccc32)C1 (centres undefined) -1.86%
CCOC(=O)c1noc2ncn(CC(=O)Nc3ccc(C)c(F)c3)c(=O)c12 -8.59%
Cc1cccc(NC(=O)CCS(=O)(=O)c2ccc3c(c2)n(C)c(=O)c(=O)n3C)c1C 1.44%
CCOC(=O)C1CCCN(C(=O)c2nn(-c3ccc(OC)cc3)c(=O)c3c2c2ccccc2n3C)C1 (centres undefined) -9.8%
CCc1cccc(NC(=O)C2CCN(C(=O)c3cnn(-c4ccccc4)c3-n3cccc3)CC2)c1 -45.2%
Cc1ccc(-n2c(=O)c3c(C)c(C(=O)N(C)C)sc3n(CC(=O)C(C)(C)C)c2=O)cc1C 4.93%
Cc1cc2c(cc1CC(=O)c1sccc1S(=O)(=O)Nc1onc(C)c1Cl)OCO2 -4.68%
CCc1ccc(-n2nc(C)c3c(C)cc(=O)n(CC(=O)N4CCCc5ccccc54)c32)cc1 11.5%
O=c1cc(-c2ccccc2)n2c(SCc3ccccc3)nnc2[nH]1 11.2%
Cc1c(C(=O)N(Cc2ccccc2F)C2CCS(=O)(=O)C2)oc2ccc(F)cc12 (centres undefined) -8.44%
CCOc1ccc(/C=C(\C#N)c2nc3ccccc3c(=O)[nH]2)cc1OC -7.49%
CCOc1ccccc1NC(=O)C1CCCN(S(=O)(=O)c2c(C)[nH]c(=O)[nH]c2=O)C1 (centres undefined) -1.03%
CCOc1ccc(-c2nonc2NC(=O)c2oc3ccc(Br)cc3c2C)cc1 -40.9%
O=C(CSc1nnc(-c2ccccc2)c(-c2ccccc2)n1)NC1CCCCC1 -20.4%
Cc1ccc(N2CC(NC(=O)Cc3cccs3)CC2=O)cc1C (centres undefined) -5.13%
CCOC(=O)N1CCc2c(sc(NCc3cccc(F)c3)c2C(=O)Nc2ccccc2OCC)C1 -14.8%
O=C(O)c1cn(-c2ccc(F)cc2)c2cc(N3CCNCC3)c(F)cc2c1=O
COC(=O)c1nnn(CC(=O)NC(=O)Nc2cccc(C)c2C)c1C(=O)OC 17%
CCc1nc2ccc(C(=O)N3CCN(c4ccccc4)CC3)cc2nc1CC -13.3%
CC(C)CN(CCCNC(=O)Cn1ncc2c3ccccc3n(C)c2c1=O)CC(C)C -5.37%
Cc1ccc(CNC(=O)c2cc3c(s2)-c2ccccc2SC3)cc1 -7.37%
CCOC(=O)c1cc(-c2ccccc2)n(CC(=O)NC(C)c2ccccc2)c1C (centres undefined) -23%
CCOC(=O)c1ccc(NC(=O)Nc2c[nH]c(=O)[nH]c2=O)cc1 -14.9%
COc1ccc(Cl)cc1NC(=O)CCS(=O)(=O)c1nc(-c2cccs2)cc(C(F)(F)F)n1 -56.6%
CCc1ccc(OC(C)C(=O)N2CCC(c3nc4ccccc4s3)CC2)cc1 (centres undefined) -6.71% [at 11.5 µM, percent change from vehicle, -100% = no light]
CC(C)COc1ccc(C(=O)Nc2cccc(-c3nc4ccccc4[nH]3)c2)cc1 -35%
Cc1cc(C)cc(NC(=O)CCS(=O)(=O)c2cc3c4c(c2)CCN4C(=O)CC3)c1 -8.04%
COc1ccccc1-c1cc2nc(C)c(CCC(=O)Nc3ccc(Br)c(C)c3)c(C)n2n1 -50.5%
O=C(NC1(C(F)(F)F)C(=O)Nc2c1c(=O)[nH]c(=O)n2CCc1ccccc1)c1ccc(Cl)cc1Cl (centres undefined) -4.54%
COc1ccccc1CNC(=O)CCCc1nnc2n(CC(C)C)c(=O)c3sccc3n12 -15.2%
CC(C)N(C(=O)CSc1nc2ccc(Cl)cc2[nH]1)c1ccccc1 -21.4%
COc1ccccc1CNC(=O)CCC1N=C2c3ccccc3N=C(SCc3cccc(Cl)c3)N2C1=O (centres undefined) -17.2%
O=C(c1ccc(F)cc1)N1c2nc(-c3ccco3)nn2C2(CCCCC2)[C@@H]2CCCC[C@@H]21 -32.5%
CCOc1ccc(OCC)c(NS(=O)(=O)c2cc(Br)cc3c2N(C(C)=O)C(C)C3)c1 (centres undefined) -40.1%
COc1ccc(-c2cc3nc(-c4ccc(C)cc4)cc(C(F)(F)F)n3n2)cc1 -4.42%
CCC(=O)Nc1nnc(SCc2cc(=O)c3cc(C)ccc3[nH]2)s1 -32.7%
CCOc1cc(-c2nnc(SCC(=O)Nc3ccc(F)c(F)c3)nc2-c2ccc(OC)c(OCC)c2)ccc1OC -8.16%
Cc1c(C(=O)OC2CCCC2)[nH]c2c1C(=O)CC(c1ccc(Cl)cc1)C2 (centres undefined) -4.11%
CC(=O)N1CCc2c(sc3c2c(=O)n(-c2ccccc2)c(=O)n3CC(=O)Nc2cccc(C)c2)C1 -27.5%
CCOc1ccc(CNS(=O)(=O)c2c(C(=O)N3CCC(C)CC3)c(C)n(C)c2C)cc1OC -8.46%
CCCS(=O)(=O)N1CC(=O)N(c2cc(C)ccc2C)C(C)(C(=O)NC2CCCCCC2)C1 (centres undefined) -4.36%
